Reference: paper PMC4336329 (PLoS ONE, 2015)
The whole screen tested about 310,000 compounds, of which about 2,200 (0.71%) showed an effect of 50% or more. The effect is printed as a negative number. Some of the results follow.

molecular target: human ether-à-go-go-related gene (hERG) potassium channel (human, UniProt Q12809); test: primary screen, population patch clamp on CHO cells stably expressing hERG
Sequence (Q12809 whole entry, looked up): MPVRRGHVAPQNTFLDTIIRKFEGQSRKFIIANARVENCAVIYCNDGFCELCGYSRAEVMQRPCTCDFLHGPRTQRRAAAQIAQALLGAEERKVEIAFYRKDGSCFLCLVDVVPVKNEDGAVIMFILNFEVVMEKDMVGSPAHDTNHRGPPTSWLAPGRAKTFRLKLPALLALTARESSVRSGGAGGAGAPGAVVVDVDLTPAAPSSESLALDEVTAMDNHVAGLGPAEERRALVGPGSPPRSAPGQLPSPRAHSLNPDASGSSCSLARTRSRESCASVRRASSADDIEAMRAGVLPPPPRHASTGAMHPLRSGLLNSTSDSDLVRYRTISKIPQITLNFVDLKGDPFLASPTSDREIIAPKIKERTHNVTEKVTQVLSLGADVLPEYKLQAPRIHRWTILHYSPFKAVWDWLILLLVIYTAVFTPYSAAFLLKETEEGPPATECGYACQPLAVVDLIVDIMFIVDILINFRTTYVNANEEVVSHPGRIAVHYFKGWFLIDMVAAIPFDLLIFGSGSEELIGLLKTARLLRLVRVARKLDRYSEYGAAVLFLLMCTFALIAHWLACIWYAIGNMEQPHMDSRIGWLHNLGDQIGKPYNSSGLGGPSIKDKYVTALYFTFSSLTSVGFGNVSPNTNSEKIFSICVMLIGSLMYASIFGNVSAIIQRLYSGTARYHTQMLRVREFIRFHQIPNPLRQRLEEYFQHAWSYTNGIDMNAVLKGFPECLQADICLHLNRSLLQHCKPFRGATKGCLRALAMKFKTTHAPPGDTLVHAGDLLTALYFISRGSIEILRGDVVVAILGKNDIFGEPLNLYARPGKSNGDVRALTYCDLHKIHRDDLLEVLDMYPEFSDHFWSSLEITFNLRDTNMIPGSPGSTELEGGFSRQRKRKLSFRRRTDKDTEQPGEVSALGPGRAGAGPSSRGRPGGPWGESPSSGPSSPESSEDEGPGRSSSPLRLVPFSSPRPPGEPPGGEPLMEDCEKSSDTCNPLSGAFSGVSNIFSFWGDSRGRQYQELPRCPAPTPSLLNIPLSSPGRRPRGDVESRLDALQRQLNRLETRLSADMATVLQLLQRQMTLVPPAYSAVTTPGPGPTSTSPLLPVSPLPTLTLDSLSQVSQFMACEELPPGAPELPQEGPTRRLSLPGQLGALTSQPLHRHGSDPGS

SMILES | hERG current change (%, negative = inhibition) at 1uM
COC(=O)[C@H](CCSC)NC(=O)NCc1ccccc1F | 4.83%
CCN1CCN(C(=O)C2CCN(S(=O)(=O)N3CCC4(CC3)OCCO4)CC2)CC1 | 9.75%
CC1CCCC(C)N1C(=O)CSc1nnnn1Cc1ccccc1 (stereo not drawn) | 10.5%
CC(Oc1ccc(-c2ccccc2)c(F)c1)c1ccn(S(=O)(=O)c2cccc3ccccc23)n1 (stereo not drawn) | 2.17%
CN(Cc1ccccc1)C(=O)CCS(=O)(=O)c1cc2c(cc1Cl)NC(=O)CO2 | -10.6%
Cc1ccccc1OCC(=O)OCC(=O)NC1CC1 | 9.5%
COc1ccc(S(=O)(=O)N2CCN(C3CCCCCCC3)CC2)cc1 | 7.5%
CCOc1cc(NC(=S)NCCCN2CCOCC2)c(OCC)cc1NC(=O)c1ccc(C)cc1 | 0.339%
COc1ccc(-c2nnc3sc(C4CCCCC4)nn23)cc1OC | -1.38%
Cc1cccc2c1cnn2C(=O)Nc1ccccc1Cl | 7.27%
Cc1cc(C)n2nc(C(=O)OCC(=O)N(C)C3CCS(=O)(=O)C3)nc2n1 (stereo not drawn) | 8.05%
COc1cc(NC(=O)c2ccccc2)c(OC)cc1NC(=O)Cc1ccc(C)cc1 | 12.8%
COc1ccccc1/C=C/C=N/n1c(-c2n[nH]c3c2CCC3)n[nH]c1=S | 10.7%
CCOc1ccc(CNC(=O)CCc2cn(C)c3ccccc23)cc1 | 15.5%
COc1cccc(OC)c1C(=O)Nc1ccc(N2CCCC2)cc1 | 14.4%
O=C(CCC(F)(F)F)N1CCC(CO)(CCc2ccccc2)CC1 | 13.8%
CN(C)CC(C)(C)CNC(=O)C1CCN(Cc2ccccc2O)CC1 | 11.6%
CCOc1ccc(C2NC(=O)C(C#N)=C(S)N2c2ccc(C)cc2)cc1OC (stereo not drawn) | 13.9%
COc1ccc(C2(CNC(=O)c3cccs3)CCOCC2)cc1 | 6.57%

SMILES | hERG current change (%, negative = inhibition) at 1uM
CCOc1ccc(NC2=NC(C)(C)N=C(N)N2)cc1 | 10.1%
CC(NC(=O)C(c1ccccc1)c1ccccc1)C(=O)O (stereo not drawn) | 0.939%
Oc1ccc2ccccc2c1N=Nc1nccs1 | 19.1%
CCCN(CCC)S(=O)(=O)c1ccc(C(=O)Nc2nnc(COC)o2)cc1 | 2.61%
OCCCc1nc2n(n1)C(c1ccccc1Cl)C=C(c1cccs1)N2 (stereo not drawn) | 3.05%
COc1ccc(C(=O)N2CCN=C2SCc2cccnc2)cc1OC | 9.25%
CCN(C(=O)c1nn(-c2ccc(OC)cc2)c(=O)c2c1c1ccccc1n2C)c1ccc(OC)cc1 | 11.3%
COc1ccc(/C=C/C(=O)NC2=NCCS2)cc1OC | 18.6%
CC(C)[C@H](NC(=O)c1ccccc1)C(=O)OCC(=O)N1CCN(C(=O)c2ccco2)CC1 | 12.4%
O=C(Cn1cc([N+](=O)[O-])cn1)Nc1ccc(Cn2cc(Br)cn2)cc1 | -4.27%
C=C(C)c1cccc(C(C)(C)NC(=O)N2CCOCC2)c1 | 4.49%
O=C(N/N=C/c1ccccn1)c1ccc(NC(=O)c2cccc([N+](=O)[O-])c2)cc1 | 13.7%
COCC(C)(C)COS(N)(=O)=O | 3.34%
C=Cc1ccc2c(c1)N(C)C(=C)S2.I | 5.17%
CCOC(=O)N1CCC(NS(=O)(=O)c2ccc3c(c2)C(C)(C)C(=O)N3C)CC1 | 21.2%
COc1ccc(S(=O)(=O)N/N=C\c2ccc([N+](=O)[O-])o2)c(OC)c1 | 9.82%
COc1cc(-c2nc(-c3ccccc3)c(-c3cccs3)[nH]2)cc(OC)c1O | 6.13%
CC(C)c1ccc(NC(=O)c2ccccc2NC(=O)C2CCCCC2C(=O)O)cc1 (stereo not drawn) | 15.2%
CS(=O)(=O)O.Cc1c(C(=O)c2cccc3ccccc23)c2cccc3c2n1[C@H](CN1CCOCC1)CO3 | 6.41%

SMILES | hERG current change (%, negative = inhibition) at 1uM
Cc1ccc(-c2cc(C(=O)Nc3ccc(S(=O)(=O)Nc4onc(C)c4C)cc3)[nH]n2)c(O)c1 | -1.84%
COCCCn1c(=O)c2sccc2n2c(CCCC(=O)N(C)Cc3ccco3)nnc12 | 8.6%
COc1ccccc1N1CCN(C(=O)c2ccc(NC3=NC4CS(=O)(=O)CC4S3)cc2)CC1 (stereo not drawn) | 7.38%
O=C1C2C3CCC(O3)C2C(=O)N1CCO (stereo not drawn) | 6.66%
CCc1cccc2c(C(=O)CN3C(=O)NC4(CCCCCC4)C3=O)c[nH]c12 | 9.9%
CCN1CCN(CC(c2ccccc2)c2ccccc2)CC1 | -0.532%
NC(=O)C1C(c2ccccc2)=C1c1ccccc1 | 18.3%
Cc1ccc(-c2nc(NCc3ccco3)n(S(C)(=O)=O)n2)cc1 | 3.19%
CCC(=O)Nc1ccc(NC(=O)CSc2nnc(-c3ccco3)n2C)cc1 | 5.39%
Cc1nc(NC(=O)C2CC2)sc1C(=O)NC1CCCCC1 | 16.1%
COc1cc(C)nc(N(Cc2ccccc2)S(=O)(=O)c2ccccc2)n1 | 7.16%
Cc1ccc(C(=O)C[n+]2cccc3ccccc32)cc1.[Br-] | 7.24%
CS(=O)(=O)Nc1ccc(C(=O)Nc2ccccc2-c2ccccc2)cc1 | -25.7%
CCOc1ncccc1C(=O)Nc1cccc(-c2nnc3n2CCCCC3)c1 | -16.4%
CCOC(=O)CCNC(=O)N1CCCC(CCC(=O)N(C)CCc2ccccn2)C1 (stereo not drawn) | -11.3%
O=C(Nc1cccc(C(=O)O)c1)/C(=C/c1cccc([N+](=O)[O-])c1)NC(=O)c1cccc(Br)c1 | 12.4%
CCOc1ccc(Nc2oc(-c3cccs3)nc2C#N)cc1 | 4.54%
CN=C1SC(CC(=O)Nc2cccc(Cl)c2Cl)C(=O)N1C (stereo not drawn) | 1.48%
CCOc1ccc(-c2nnn(CC(=O)Nc3cc(OC)ccc3OC)n2)cc1OCC | 8.07%
